According to the supplement of paper PMC3334620:
In all, about 33,000 sequences were measured (“E-score (-0.5 to 0.5)”: median about -0.016, highest 2% from about 0.32 on). The list shows a part of the results.

molecular target: T1, Stp1 (UniProt B3LFK1); experiment: PBM E-score (8-mer binding enrichment) (E-score (-0.5 to 0.5)); higher = stronger / more preferred TF binding; most listed sequences are background and not binding sites; settings: protein concentration: 200 nM; construct: GST-full length
T1 sequence: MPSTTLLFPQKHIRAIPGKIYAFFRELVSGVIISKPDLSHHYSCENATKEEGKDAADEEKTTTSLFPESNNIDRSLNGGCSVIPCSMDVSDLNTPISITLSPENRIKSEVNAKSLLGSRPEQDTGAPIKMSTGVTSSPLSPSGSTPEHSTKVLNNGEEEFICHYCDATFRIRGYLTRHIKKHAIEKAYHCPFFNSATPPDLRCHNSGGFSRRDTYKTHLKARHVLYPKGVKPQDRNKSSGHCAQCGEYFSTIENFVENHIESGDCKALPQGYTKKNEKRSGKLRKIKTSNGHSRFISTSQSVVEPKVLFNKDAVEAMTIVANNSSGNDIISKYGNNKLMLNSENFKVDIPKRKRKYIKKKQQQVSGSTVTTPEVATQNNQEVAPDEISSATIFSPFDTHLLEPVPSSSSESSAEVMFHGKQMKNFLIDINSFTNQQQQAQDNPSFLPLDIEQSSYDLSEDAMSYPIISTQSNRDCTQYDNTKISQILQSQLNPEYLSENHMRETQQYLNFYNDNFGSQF
In short: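 Universal all-10-mer Agilent arrays, fresh or stripped once, were converted to double-stranded form by primer extension. GST-tagged yeast transcription factors from PURExpress in vitro transcription/translation, full-length or DNA-binding domain only, were applied at about 100-200 nM and detected with fluorescent anti-GST. After masliner normalisation, the Universal PBM Analysis Suite scored each ungapped eight-base word together with its reverse complement by E-score.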

Row | Sequence | PBM E-score
1 | CAGCCGCC | 0.0812
2 | ACTAGAGC | 0.0392
3 | ACATAGGA | -0.199
4 | GCTCTCGA | -0.144
5 | GAGTTCGA | 0.0785
6 | AATCGGGG | -0.148
7 | CGCGGGGC | 0.296
8 | GCTAGCAA | -0.127
9 | AGAAGAAA | 0.0201
10 | AATATAGC | 0.0676
11 | TACTAGTA | 0.158
12 | AATTATCG | 0.163
13 | TGCGCACA | -0.00981
14 | ATATTACC | 0.178
15 | GAGGTCCC | -0.185
16 | GACCTACC | -0.168
17 | ATTTGAAG | 0.00357
18 | CGATTACG | -0.0549
19 | CGTATTCA | 0.215
20 | ATATCGAC | 0.155
21 | AGGTTGAT | -0.324
22 | ATACCAGC | -0.18
23 | GAGACCAC | -0.139
24 | CGATCGGA | -0.0912
25 | AGTTTGTA | 0.0645

Row | Sequence | PBM E-score
26 | CCGACTCA | -0.195
27 | CAAGAGTA | -0.0583
28 | AAAGCGGG | -0.19
29 | AATCGAAA | 0.0672
30 | CTCATGTA | 0.0704
31 | GCAACGAC | 0.0446
32 | CCATTTCA | -0.133
33 | AGCAGATG | -0.255
34 | CGTGACAC | 0.0961
35 | TATAGAGA | 0.0248
36 | CGCGACTC | -0.169
37 | CCGGGTAC | -0.00701
38 | CTCACCCA | -0.141
39 | GTGGGAAA | 0.0444
40 | CAACGACC | -0.0528
41 | CCGATTCA | 0.0966
42 | AGGACCCC | -0.286
43 | CGGGCCCA | -0.0553
44 | CCGCAAAA | 0.178
45 | ATTAGACC | -0.194
46 | GCTGCAAA | 0.0984
47 | TTATGAAA | 0.178
48 | AGCTCGTC | -0.0849
49 | CGGCCTCA | 0.2
50 | ACAACTTC | 0.091

Row | Sequence | PBM E-score
51 | ACACTTTG | -0.0996
52 | GAATTAGA | -0.00696
53 | ACACCTCT | -0.0926
54 | CTCCCATC | -0.0271
55 | AACAACTT | 0.0056
56 | GCCACGGA | 0.163
57 | CAGAGACA | -0.273
58 | GACTATCC | -0.178
59 | ATTAGTAG | 0.0992
60 | AGACCCGA | -0.0722
61 | CCGCGTCA | 0.214
62 | AACCCTCT | -0.36
63 | AGCCTAGC | -0.197
64 | ATTTGCGG | 0.123
65 | CCGATGCC | 0.264
66 | TAGCGAGA | -0.0854
67 | AATCGAAG | 0.199
68 | ATGGCTGA | -0.0787
69 | CGCCGGAC | 0.0983
70 | CACTCCGG | -0.0179
71 | CAATCCTG | -0.0105
72 | AACCCGAA | -0.145
73 | ACCTCTTG | -0.174
74 | TAGCACGA | 0.1
75 | CTACACTC | -0.0992

Row | Sequence | PBM E-score
76 | TGCTACCA | 0.0189
77 | CGGGAAAC | 0.0127
78 | ATACCCCC | -0.283
79 | GGCGGAAA | 0.0632
80 | AGGCTCAG | -0.0826
81 | CCTAGGTA | -0.179
82 | CCCAGACG | -0.255
83 | CACGGGAA | 0.0307
84 | CCCCCACC | -0.39
85 | ATACTCTC | -0.0667
86 | GAGAACCA | -0.0465
87 | ACTCTGAG | -0.046
88 | CCCCTTTA | -0.146
89 | CGGTCGTC | -0.23
90 | ACCATGGT | -0.22
91 | CCTCATGC | -0.149
92 | ACAGCCAC | 0.102
93 | CACCCTGG | -0.39
94 | ATTGCAGA | 0.0253
95 | CCGTAACC | 0.0805
96 | AGGGCACT | 0.239
97 | GCTACGCC | 0.0422
98 | GAGGGAAA | -0.208
99 | ATCTCTTG | -0.137
100 | CTCCCATA | -0.319

Row | Sequence | PBM E-score
101 | AATCCATG | 0.0212
102 | ACGCGCCG | 0.412
103 | AGAGGAGC | -0.119
104 | CCGCGAAC | -0.0404
105 | AACAGTTA | 0.12
106 | ACTTCATG | -0.118
107 | CACCCGTA | -0.0542
108 | AAATTCAT | 0.0395
109 | ATCGTCCG | 0.00927
110 | CTTGGACA | -0.051
111 | AAAAACAT | 0.0934
112 | AGCCCTAT | 0.0437
113 | CTTACACC | -0.0813
114 | AATAGGTG | -0.102
115 | ACCCCTAC | -0.318
116 | ACACCCGC | 0.0105
117 | TAGTCCGA | -0.0522
118 | GCTCAGCA | -0.0239
119 | GACCAAAC | -0.0249
120 | AAGTATTA | -0.0297
121 | AAACTTTA | 0.0741
122 | CACAACAA | 0.163
123 | AATCTGGT | 0.0301
124 | CGTACTAC | 0.0146
125 | AGCCGGAT | 0.0422

Row | Sequence | PBM E-score
126 | CCTGAGGA | -0.185
127 | CAAGTGGA | -0.131
128 | AGGAAGCA | -0.168
129 | AGATTCAT | -0.0462
130 | AGTTTTTA | 0.138
131 | CAGTCGCC | 0.00112
132 | TGAACCCA | -0.124
133 | GAAACTTA | 0.132
134 | CGTAGAAA | 0.0902
135 | GCTTCGAC | -0.0951
136 | ACGTAGGG | -0.203
137 | AGCCTTGC | 0.325
138 | ACTATGTC | -0.0832
139 | AGTCAGGG | -0.259
140 | ATAGGCTG | -0.186
141 | AAGGCGTA | 0.234
142 | CGGTTCGC | -0.0225
143 | CCAAATGG | 0.0952
144 | GTGGTTGA | -0.00686
145 | TGCGGCCA | 0.233
146 | AGATGGAA | -0.00795
147 | AATTTAGT | 0.0973
148 | CGAGCAGC | 0.0563
149 | GAGGATCA | 0.0371
150 | ATTAAGCA | 0.00694

Row | Sequence | PBM E-score
151 | CAGTGCTC | -0.165
152 | AAAACCTC | 0.0139
153 | GAGGGAGA | -0.223
154 | CGCCCTGC | 0.346
155 | TAACATGA | 0.0428
156 | TCGGTGAA | -0.143
157 | AAGCTTAC | -0.0335
158 | CATTGGAC | -0.155
159 | AGCCTACG | 0.132
160 | CGTAAATC | 0.079
161 | TGAGGCCA | -0.0923
162 | CGAGGTTA | -0.132
163 | CCTTTTTA | 0.015
164 | ACTGTGCA | 0.0246
165 | CGGGGTGA | -0.0472
166 | AGCGAGGC | 0.197
167 | ATAGGATG | 0.0575
168 | AATCTATA | 0.186
169 | AAGCGTAC | -0.161
170 | CGCAACCG | -0.0368
171 | GATTTAGA | 0.0668
172 | CAGCTTCG | -0.156
